The source of these data is PubChem BioAssay AID1199 (EPA DSSTox, 2008).

The test system of this data set is mouse carcinogenicity bioassay, TD50 from CPDB. Briefly: DSSTox (CPDBAS) Carcinogenic Potency Database Summary Mouse Bioassay Results. To be noted: TD50_Mouse_Note: no positive results. From the text:
The Carcinogenic Potency Database (CPDB) is a unique and widely used international resource of the results of over 6500 chronic, long-term animal cancer tests on over 1500 chemical substances. The CPDB provides easy access to the bioassay literature, with qualitative and quantitative analyses of both positive and negative experiments that have been published over the past 50 years in the general literature and by the National Cancer Institute/National Toxicology Program. The CPDB standardizes the diverse literature of cancer bioassays that vary widely in protocol, histopathological examination and nomenclature, and in the published author's choices of what information to provide in their papers. Results are reported in the CPDB for tests in rats, mice, hamsters, dogs, and nonhuman primates, and are based on the most positive result among all experiments for each sex-species. The DSSTox CPDBAS (all species) file incorporates data from the CPDB Summary Tables for the full list of over 1500 chemical substances tested in at least one species. Summary bioassay results for Mouse (TD50, tumor sites, male, female, both sexes) are provided in the CPDB Summary Tables and the DSSTox CPDBAS file for over 1000 chemical substances.
TD50 is a standardized quantitative measure of carcinogenic potency (analogous to an LD50) and is reported in the CPDB Summary Table for each species. […]

Some entries of the source have several records that differ or are many. This is not the full list of results. There may be further records.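 The calls were made as follows: active = a tumour-causing dose and a tumour site recorded for mice in at least one sex group; inconclusive = only government mouse studies exist and were judged inadequate; inactive = mouse studies exist but none gave tumours.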 The values listed for one entry are repeated measurements in other runs, samples, wells, individuals or studies. A tag in brackets gives the origin of a value. Letters hold for one entry only.

With `C#C[C@]1(OC(C)=O)CC[C@H]2[C@@H]3CCC4=C[C@@H](OC(C)=O)CC[C@@H]4[C@H]3CC[C@@]21C`, the outcome is “inactive [sample A] and inactive; no positive results [sample B]”.
As to `CC(=O)O[C@]1(C(C)=O)CC[C@H]2[C@@H]3C=C(Cl)C4=CC(=O)CC[C@]4(C)[C@H]3CC[C@@]21C`, the outcome was “inactive [sample A] and inactive; no positive results [sample B]”.
